Laboratory results published in patent US7691374B2, “Method for increasing the efficacy of anti-tumor agents by anti-endoglin antibody” (Health Research, Inc., priority 2002, dated 2010).
Read-outs that look alike come from different tables or passages of the source.

Tested on: MCF-7 human breast cancer tumors
Settings: SN6j 100 μg/25 g i.v., DOX 25 μg/25 g i.p.

`COc1cccc2c1C(=O)c1c(O)c3c(c(O)c1C2=O)C[C@@](O)(C(=O)CO)C[C@@H]3O[C@H]1C[C@H](N)[C@H](O)[C@H](C)O1` [DOX, Doxorubicin] was tested, and the “Fractional Tumor Volume (FTV) Relative to MOPC + Saline Group” value (Day 21.0 after tumor cell inoculation) was 0.993, the “Fractional Tumor Volume (FTV) Relative to MOPC + Saline Group” value (Day 26.0 after tumor cell inoculation) was 0.967 and the “Fractional Tumor Volume (FTV) Relative to MOPC + Saline Group” value (Day 29.0 after tumor cell inoculation) was 0.980. The “Fractional Tumor Volume (FTV) Relative to MOPC + Saline Group” value (Day 33.0 after tumor cell inoculation) was 0.900 and the “Fractional Tumor Volume (FTV) Relative to MOPC + Saline Group” value (Day 36.0 after tumor cell inoculation) was 0.856.
